The values that follow come from the supplement of paper PMC4604168 (melanoma cell lines).

The other results are listed elsewhere or left out. Repeats are few or missing, and single values can be far off.
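Also: cells treated in 1,536-well plates, then fixed and DAPI-stained, with nuclei counted from automated high-throughput microscope images.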

The test system of the assay is WM1716. Put plainly: cell count relative to DMSO control; melanoma cells; higher = more viable cells. Particulars: library dose: standard library concentration; 72 h.
The compound `Cc1cc(Nc2cc(N3CCN(C)CC3)nc(Sc3ccc(NC(=O)C4CC4)cc3)n2)n[nH]1` [Tozasertib] + C[C@]1(c2nc3c(C(N)=O)cccc3[nH]2)CCCN1 [Veliparib] (first compound 0.03 µM, partner dose 7 µM) displayed a cell count of 64%. In turn, `N#CC[C@H](C1CCCC1)n1cc(-c2ncnc3[nH]ccc23)cn1` [ruxolitinib] + Cn1cncc1[C@@](N)(c1ccc(Cl)cc1)c1ccc2c(c1)c(-c1cccc(Cl)c1)cc(=O)n2C [tipifarnib] (first compound 5 µM, partner dose 0.05 µM) registered a cell count of 69.9%. `CC[C@]1(O)C[C@H]2CN(CCc3c([nH]c4ccccc34)[C@@](C(=O)OC)(c3cc4c(cc3OC)N(C=O)[C@H]3[C@@](O)(C(=O)OC)[C@H](OC(C)=O)[C@]5(CC)C=CCN6CC[C@]43[C@@H]65)C2)C1` [vincristine] + Cc1cc(Nc2cc(N3CCN(C)CC3)nc(/C=C/c3ccccc3)n2)n[nH]1 [ENMD2076] (first compound 0.0005 µM, partner dose 0.2 µM) gave a cell count of 73.7%. `Cc1cc(Nc2cc(N3CCN(C)CC3)nc(Sc3ccc(NC(=O)C4CC4)cc3)n2)n[nH]1` [Tozasertib] + CC(C)CCN1c2nc(Nc3cc(F)c(O)c(F)c3)ncc2N(C)C(=O)C1C [BID1870] (first compound 0.03 µM, partner dose 1 µM) registered a cell count of 89.3%. Consider `CC[C@]1(O)C[C@H]2CN(CCc3c([nH]c4ccccc34)[C@@](C(=O)OC)(c3cc4c(cc3OC)N(C=O)[C@H]3[C@@](O)(C(=O)OC)[C@H](OC(C)=O)[C@]5(CC)C=CCN6CC[C@]43[C@@H]65)C2)C1` [vincristine] + CN(NC(=O)CC(=O)NN(C)C(=S)c1ccccc1)C(=S)c1ccccc1 [STA4783] (first compound 0.0005 µM, partner dose 0.03 µM), for which the cell count is 27.9%.
